According to the supplement of paper PMC8728848:
The other results are listed elsewhere or left out.

How the values were obtained:
Experiment in all cases: glycan array binding signal (z-score within array); higher = stronger binding
Details in all cases: glycan notation: IUPAC condensed, linker removed
[1] = target: Man(a1-2)Man(a1-6)[Man(a1-3)]Man(a1-6)[Man(a1-2)Man(a1-2)Man(a1-3)]Man(b1-4)GlcNAc(b1-4)GlcNAc
Summary of the method: (§1)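 The binding signal is a Z-score computed within each array. Data were drawn from 3228 arrays in the Consortium for Functional Glycomics database, restricted to those with a known protein sequence. Scores were averaged over arrays of the same protein sequence at different concentrations or buffers, and over linkers, and negative values can be taken as non-binding.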

Man(a1-3)[Man(a1-6)]Man = target: Man(a1-3)[Man(a1-6)]Man
Summary of the method: as §1

[2] = target: Man(a1-3)[Man(a1-6)]Man(a1-6)[Man(a1-2)Man(a1-3)]Man(b1-4)GlcNAc(b1-4)GlcNAc
Summary of the method: as §1

[3] = target: Man(a1-3)[Man(a1-6)]Man(a1-6)[Man(a1-3)]Man
Summary of the method: as §1

[4] = target: Man(a1-3)[Man(a1-6)]Man(a1-6)[Man(a1-3)]Man(b1-4)GlcNAc(b1-4)GlcNAc
Summary of the method: as §1

[5] = target: Man(a1-3)[Man(a1-6)]Man(b1-4)GlcNAc(b1-4)GlcNAc
Summary of the method: as §1

[6] = target: Man(a1-3)[Man(a1-6)]Man(b1-4)GlcNAc(b1-4)[Fuc(a1-6)]GlcNAc
Summary of the method: as §1

Man(a1-6)Man = target: Man(a1-6)Man
Summary of the method: as §1

Man(b1-4)GlcNAc = target: Man(b1-4)GlcNAc
Summary of the method: as §1

MurNAc(b1-4)GlcNAc = target: MurNAc(b1-4)GlcNAc
Summary of the method: as §1

Neu5Ac(a2-3)Gal = target: Neu5Ac(a2-3)Gal
Summary of the method: as §1

[7] = target: Neu5Ac(a2-3)Gal(b1-3)GalNAc
Summary of the method: as §1

[8] = target: Neu5Ac(a2-3)Gal(b1-3)GalNAc(b1-3)Gal(a1-4)Gal(b1-4)Glc
Summary of the method: as §1

[9] = target: Neu5Ac(a2-3)Gal(b1-3)GalNAc(b1-3)Gal(b1-4)GlcNAc
Summary of the method: as §1

[10] = target: Neu5Ac(a2-3)Gal(b1-3)GalNAc(b1-4)[Neu5Ac(a2-3)]Gal(b1-4)Glc
Summary of the method: as §1

[11] = target: Neu5Ac(a2-3)Gal(b1-3)GalNAc(b1-4)[Neu5Ac(a2-8)Neu5Ac(a2-3)]Gal(b1-4)Glc
Summary of the method: as §1

[12] = target: Neu5Ac(a2-3)Gal(b1-3)GalNAc6S
Summary of the method: as §1

[13] = target: Neu5Ac(a2-3)Gal(b1-3)GlcNAc
Summary of the method: as §1

[14] = target: Neu5Ac(a2-3)Gal(b1-3)GlcNAc(b1-2)Man
Summary of the method: as §1

[15] = target: Neu5Ac(a2-3)Gal(b1-3)GlcNAc(b1-2)Man(a1-3)[GlcNAc(b1-4)][Neu5Ac(a2-3)Gal(b1-3)GlcNAc(b1-2)Man(a1-6)]Man(b1-4)GlcNAc(b1-4)GlcNAc
Summary of the method: as §1

[16] = target: Neu5Ac(a2-3)Gal(b1-3)GlcNAc(b1-2)Man(a1-3)[Neu5Ac(a2-3)Gal(b1-3)GlcNAc(b1-2)Man(a1-6)]Man(b1-4)GlcNAc(b1-4)GlcNAc
Summary of the method: as §1

[17] = target: Neu5Ac(a2-3)Gal(b1-3)GlcNAc(b1-3)Gal(b1-3)GlcNAc
Summary of the method: as §1

[18] = target: Neu5Ac(a2-3)Gal(b1-3)GlcNAc(b1-3)Gal(b1-4)GlcNAc
Summary of the method: as §1

[19] = target: Neu5Ac(a2-3)Gal(b1-3)GlcNAc(b1-3)GalNAc
Summary of the method: as §1

[20] = target: Neu5Ac(a2-3)Gal(b1-3)GlcNAc(b1-4)Gal(b1-4)Glc
Summary of the method: as §1

[21] = target: Neu5Ac(a2-3)Gal(b1-3)GlcNAc(b1-6)GalNAc
Summary of the method: as §1

[22] = target: Neu5Ac(a2-3)Gal(b1-3)GlcNAc6S
Summary of the method: as §1

[23] = target: Neu5Ac(a2-3)Gal(b1-3)[Fuc(a1-4)]GlcNAc
Summary of the method: as §1

[24] = target: Neu5Ac(a2-3)Gal(b1-3)[Fuc(a1-4)]GlcNAc(b1-3)Gal(b1-3)[Fuc(a1-4)]GlcNAc
Summary of the method: as §1

[25] = target: Neu5Ac(a2-3)Gal(b1-3)[Fuc(a1-4)]GlcNAc(b1-3)Gal(b1-4)[Fuc(a1-3)]GlcNAc
Summary of the method: as §1

[26] = target: Neu5Ac(a2-3)Gal(b1-3)[GlcNAc(b1-6)]GalNAc
Summary of the method: as §1

[27] = target: Neu5Ac(a2-3)Gal(b1-3)[Neu5Ac(a2-3)Gal(b1-4)]GlcNAc
Summary of the method: as §1

[28] = target: Neu5Ac(a2-3)Gal(b1-3)[Neu5Ac(a2-6)]GalNAc
Summary of the method: as §1

[29] = target: Neu5Ac(a2-3)Gal(b1-3)[Neu5Ac(a2-6)]GlcNAc(b1-3)[Fuc(a1-3)[Gal(b1-4)]GlcNAc(b1-6)]Gal(b1-4)Glc
Summary of the method: as §1

[30] = target: Neu5Ac(a2-3)Gal(b1-3)]Neu5Ac(a2-3)Gal(b1-4)]GlcNAc
Summary of the method: as §1

Neu5Ac(a2-3)Gal(b1-4)Glc = target: Neu5Ac(a2-3)Gal(b1-4)Glc
Summary of the method: as §1

[31] = target: Neu5Ac(a2-3)Gal(b1-4)GlcNAc
Summary of the method: as §1

B1: LCA (Lens culinaris), P02870 (protein)
chain: MASLQTQMISFYLIFLSILLTTIFFFKVNSTETTSFSITKFSPDQKNLIFQGDGYTTKGKLTLTKAVKSTVGRALYSTPIHIWDRDTGNVANFVTSFTFVIDAPSSYNVADEFTFFIAPVDTKPQTGGGYLGVFNSKEYDKTSQTVAVEFDTFYNAAWDPSNKERHIGIDVNSIKSVNTKSWNLQNGERANVVIAFNAATNVLTVTLTYPNSLEEENVTSYTLNEVVPLKDVVPEWVRIGFSATTGAEFAAHEVHSWSFHSELGGTSSSKQAADA
glycan array binding signal (z-score) [1]: 2.81 | glycan array binding signal (z-score) (Man(a1-3)[Man(a1-6)]Man): -0.08 | glycan array binding signal (z-score) [2]: 2.82 | glycan array binding signal (z-score) [3]: -0.213 | glycan array binding signal (z-score) [4]: 0.11 | glycan array binding signal (z-score) [5]: 0.57 | glycan array binding signal (z-score) [6]: 6.07 | glycan array binding signal (z-score) (Man(a1-6)Man): -0.192 | glycan array binding signal (z-score) (Man(b1-4)GlcNAc): -0.225 | glycan array binding signal (z-score) (MurNAc(b1-4)GlcNAc): -0.251 | glycan array binding signal (z-score) (Neu5Ac(a2-3)Gal): -0.194 | glycan array binding signal (z-score) [7]: -0.238 | glycan array binding signal (z-score) [8]: -0.157 | glycan array binding signal (z-score) [9]: -0.208 | glycan array binding signal (z-score) [10]: -0.227 | glycan array binding signal (z-score) [11]: -0.23 | glycan array binding signal (z-score) [12]: -0.218 | glycan array binding signal (z-score) [13]: -0.15 | glycan array binding signal (z-score) [14]: -0.157 | glycan array binding signal (z-score) [15]: -0.233 | glycan array binding signal (z-score) [16]: -0.262 | glycan array binding signal (z-score) [17]: -0.22 | glycan array binding signal (z-score) [18]: -0.236 | glycan array binding signal (z-score) [19]: -0.207 | glycan array binding signal (z-score) [20]: -0.247 | glycan array binding signal (z-score) [21]: -0.238 | glycan array binding signal (z-score) [22]: -0.071 | glycan array binding signal (z-score) [23]: -0.216 | glycan array binding signal (z-score) [24]: -0.206 | glycan array binding signal (z-score) [25]: -0.204 | glycan array binding signal (z-score) [26]: -0.233 | glycan array binding signal (z-score) [27]: -0.228 | glycan array binding signal (z-score) [28]: -0.19 | glycan array binding signal (z-score) [29]: -0.234 | glycan array binding signal (z-score) [30]: -0.221 | glycan array binding signal (z-score) (Neu5Ac(a2-3)Gal(b1-4)Glc): -0.185 | glycan array binding signal (z-score) [31]: -0.226
